Experimental data published in PubChem BioAssay AID463173 (ICCB-Longwood Screening Facility, Harvard Medical School, 2010).
The whole screen tested about 52,000 compounds, of which about 4,300 (8.3%) were called active. Rule as the data show it: active = survival mostly below about 52% (no sharp cut-off); inactive = mostly above about 56%. This is one part of the list.

system: DeltatarO mutant; assay: growth inhibition of S. aureus wild type versus tarO mutant, primary screen, teichoic acid synthesis inhibitors, RN4220, OD600 (AID 463173); conditions: OD600, 18 h, stronger effect = lower value, screened at 18.75 µg/mL (by protocol)

Structure (SMILES) | survival
O=C(CN1CCC(n2cnc3cc(F)ccc32)CC1)Nc1ccccc1Br | inactive: 94%
COc1ccc(/C=C/c2nc(C#N)c(NCc3ccc(C)cc3)o2)cc1OC | inactive: 84%
CCNC(=O)c1ccc2c(c1)sc1nc(-c3cccc(OC)c3)cn12 | inactive: 53%
CC(Oc1ccccc1)C(=O)Nc1cccc(-c2cn3cccnc3n2)c1 (stereo unspecified) | inactive: 75%
CN(C)c1ccc(-c2nnc(-c3ccc(Cl)cc3)o2)cc1 | inactive: 59%
O=C(NCCc1ccccc1)c1ccc2c(c1)N(Cc1ccc(F)cc1Cl)C(=O)CS2 | active: 55%
CCCc1nnc(SCC(=O)N2CCCc3ccccc32)n1CC | inactive: 107%
Cc1ccc(NC(=O)N2CCC3(CC2)Oc2ccccc2C(=O)N3Cc2ccc(F)cc2)cc1 | inactive: 71%
Cc1cc2c(=O)[nH][nH]c(=S)n2n1 | inactive: 75%
Cc1cc(C)c2c(=O)cc(C(=O)Nc3sc4c(c3C(=O)NCc3ccco3)CCCC4)oc2c1 | inactive: 48%
CS(=O)(=O)CC[C@@H](C(=O)NCCc1ccccc1)N1Cc2ccccc2C1=O | inactive: 94%
CN(c1nnc(NC(=O)Nc2ccccc2C(F)(F)F)s1)C1CCCCC1 | inactive: 100%
COc1ccc(NC(=O)Cn2c(=O)c3ccccc3n3nncc23)cc1Cl | inactive: 105%
COCc1cc(C)nc2c1C(=O)NC(c1ccc(NC(C)=O)cc1)N2Cc1ccccc1 (stereo unspecified) | inactive: 74%
CC(C)(C)OC(=O)N1CCC(c2c(C(=O)N3CCN(C(=O)c4ccco4)CC3)cnn2-c2cccc(Cl)c2)CC1 | inactive: 99%
CC(=O)c1ccc(NC(=O)c2nc(-c3ccc(Cl)cc3)n3c2CCCCC3)cc1 | inactive: 101%
Cc1ccccc1CSc1nc2c(sc3ccccc32)c(=O)n1CCCC(=O)NCCCOC(C)C | inactive: 87%
COC(=O)c1cc(NC(=O)CC2C(=O)OCCN2Cc2ccccc2)cc(C(=O)OC)c1 (stereo unspecified) | inactive: 178%
COc1cccc(OCC(=O)NC2CC(=O)N(c3cccc(OC)c3)C2)c1 (stereo unspecified) | inactive: 106%
COc1ccc(N(CC(=O)N2CCc3ccccc3C2)S(=O)(=O)c2ccccc2)cc1 | inactive: 58%
CCOC(=O)c1nnn(C(CC)C(=O)Nc2ccc(F)cc2)c1C(=O)OCC (stereo unspecified) | inactive: 119%
COc1ccccc1C1C(C(=O)N2CCCCC2)=C(C)Nc2nc3ccccc3n21 (stereo unspecified) | inactive: 80%
CCOc1ccc(S(=O)(=O)c2cn(CC)c3ccc(F)cc3c2=O)cc1 | inactive: 91%

Structure (SMILES) | survival
Cc1ccc(NC(=O)CN2C(=O)c3cccnc3Sc3ccccc32)c(Br)c1 | inactive: 89%
Cc1ccc(Nc2c3c(nc4nncn24)CCC3)c(C)c1 | inactive: 96%
COc1ccc2c(c1)-c1nc(NC(=O)c3cccc(Br)c3)sc1CC2 | inactive: 51%
COCCN1Cc2cccc(C(=O)N(CC(=O)NC3CCCCC3)Cc3ccc4c(c3)OCO4)c2C1=O | inactive: 93%
Cn1c(=O)c2c(nc(CN3CCN(CCO)CC3)n2CCCc2ccccc2)n(C)c1=O | inactive: 100%
O=C(C1COc2ccccc2O1)N(Cc1cccnc1)c1nc2c(F)cccc2s1 (stereo unspecified) | inactive: 84%
CCOC(=O)c1c(NC(=O)c2cc(-c3cccc(Cl)c3)on2)sc(C(C)=O)c1C | inactive: 56%
CC1CCN(S(=O)(=O)c2cc(C(=O)N3CCN(c4cccc(Cl)c4)CC3)n(C)c2)CC1 | inactive: 70%
CCOC(=O)c1c(C)oc2nc(C)nc(NCC3CCN(Cc4cc(C)ccc4C)CC3)c12 | inactive: 80%
CCCN(C(=O)CCc1nc(-c2ccc(C)cc2)no1)c1ccc(OCC)cc1 | active: -4%
Cc1ccc(N2C(=O)C(CC(=O)Nc3cccc(F)c3)N(CCc3ccccc3F)C2=O)cc1 (stereo unspecified) | inactive: 110%
O=C1NCCCC1C(=O)N1CCc2ccccc21 (stereo unspecified) | inactive: 101%
CC1=NN(c2ccccc2)C(=O)C1CCC#N (stereo unspecified) | inactive: 85%
CSc1ccc(CCNC(=O)Cn2c(C)c3cnn(-c4ccccc4)c(=O)c3c2C)cc1 | inactive: 89%
Cc1cccc2cc(C#N)c(N3CCC(C)CC3)nc12 | inactive: 76%
COc1cccc(/C=C/c2nc(C#N)c(NC3CCCCC3)o2)c1 | inactive: 69%
CCc1cccc(NC(=O)CSc2nnc(-c3cc4occc4n3C)n2-c2ccccc2C)c1 | inactive: 89%
Cc1ccc(-n2nc(CO)c(C(=O)NCCC(C)C)n2)cc1C | inactive: 100%
COc1cccc(-n2c(=O)c3sc4ccccc4c3n(Cc3c(F)cccc3Cl)c2=O)c1 | inactive: 88%
Cc1ccc(CNC(=O)c2ccc(Cn3c(SCc4ccc(F)cc4)nc4cccnc43)cc2)o1 | inactive: 81%
O=c1n(Cc2ccc(F)cc2)c2ccccc2c2nc(-c3ccccc3)nn12 | inactive: 86%
O=C(CN1C(=O)COc2ccccc21)c1ccc(Cl)cc1 | inactive: 74%
Cc1cccc(C(=O)Nc2ccccc2OCc2cc(=O)n3ccccc3n2)c1 | inactive: 88%

Structure (SMILES) | survival
CCOc1ccc(NC(=O)c2cn(C3CCCCC3)c(=O)c3c2c2ccccc2n3C)cc1 | inactive: 72%
COc1ccc(C)cc1NS(C)(=O)=O | inactive: 75%
Cc1ccc(-c2nnc(SCC(=O)NC(C)(C)C)nc2-c2ccc(C)cc2)cc1 | inactive: 80%
N#C/C(=C/c1cccs1)C(=O)O | inactive: 98%
Cn1c(=O)c2c(nc(NCCc3ccccc3)n2Cc2ccccc2Br)n(C)c1=O | inactive: 54%
CCOc1ccc(C(=O)N(Cc2nc(-c3cccc(C)c3)no2)C(C)C)cc1 | active: 0%
COc1cccc2c1cc1c(=O)n(CC(=O)N3CCN(c4ccc(F)cc4)CC3)nc(C)n12 | inactive: 87%
N#Cc1cc(Cl)c(N2CCCCCC2)cc1C#N | inactive: 84%
O=C(CCCSc1nc(-c2ccco2)cc(C(F)(F)F)n1)NCC1CCCO1 (stereo unspecified) | inactive: 56%
CC1=NN(C(C#N)c2ccccc2)C(C)(C)C1 (stereo unspecified) | inactive: 104%
CCCS(=O)(=O)c1nc(S(=O)(=O)c2ccc(C)cc2)c(NCCCOC(C)C)s1 | inactive: 102%
COc1ccc2nc(SCC(O)c3cccc(Br)c3)[nH]c2c1 (stereo unspecified) | inactive: 76%
Cc1ccc(Sc2ccc(N3CCCC(C(=O)Nc4ccc(F)cc4)C3)nn2)cc1 (stereo unspecified) | inactive: 55%
O=C(Cn1nc(N2CCN(c3ccccc3)CC2)ccc1=O)NCc1ccccc1F | inactive: 84%
CCN(CC)C(=O)CSc1nc2cc3c(cc2c(=O)n1CCCC(=O)NCc1ccc2c(c1)OCO2)OCO3 | inactive: 91%
COc1ccc(CCNC(=O)C(=O)NCC(c2cccs2)S(=O)(=O)c2cccs2)cc1 (stereo unspecified) | inactive: 78%
Cn1c(=O)c2[nH]c(=S)[nH]c2n(C)c1=O | inactive: 103%
CCOc1ccccc1Nc1nc2ccccc2nc1NS(=O)(=O)c1ccc(Cl)cc1 | inactive: 79%
COc1ccc(C(=O)n2nc(-c3cccnc3)nc2NCc2ccccc2)cc1OC | inactive: 81%
CC(=O)N1CCCc2cc(S(=O)(=O)N3CCC(C(=O)Nc4c(C)cccc4C)CC3)ccc21 | inactive: 71%
COc1ccc(-c2nc(CN3CCC(C(=O)NCc4ccc(C)cc4)CC3)c(C)o2)cc1OC | inactive: 68%
CCOc1ccc(CNC(=O)CCCn2c(=O)c3cccn3c3ccccc32)cc1 | inactive: 55%
NC(=O)c1c(NC(=O)CN2CCCC2)sc2c1CCCC2 | inactive: 74%

Structure (SMILES) | survival
Cc1ccc(Cn2c(C)c3cnn(CC(=O)O)c(=O)c3c2C)cc1 | inactive: 106%
O=C(Cn1cc(SCc2ccc(F)cc2)c2ccccc21)N1CCCCC1 | inactive: 79%
O=C(Nc1cccc(C(=O)OCc2cc(=O)n3c4c(sc3n2)CCCC4)c1)c1ccc(Cl)cc1 | inactive: 93%
COc1ccc(NC(=O)Cn2c(=O)n(CCCCCC(=O)NCc3ccc4c(c3)OCO4)c(=O)c3sccc32)cc1Cl | inactive: 78%
CCCSc1oc(-c2cccs2)nc1S(=O)(=O)c1ccc(C)cc1 | inactive: 41%
CCc1nnc(SCc2cccc(Cl)c2)c2cc3sccc3n12 | active: -2%
COc1ccc(-c2cc(OC(=O)c3ccccc3Cl)c3c(C)oc(C)c3c(=O)c2)cc1OC | inactive: 82%
CCOc1cccc(C(=O)Nc2ccc3oc(-c4ccncc4)nc3c2)c1 | inactive: 70%
CC1CCN(C(=O)COc2ccccc2Cl)CC1 | inactive: 101%
Cc1nc2ccccc2n1C(=O)N(C)C | inactive: 78%
Cc1cc(F)ccc1NC(=O)Cn1nc(N2CCN(c3ccccc3)CC2)ccc1=O | inactive: 80%
COc1ccc2c(CNC3CCCCCC3)c(C(=O)O)n(Cc3ccc(C)cc3)c2c1 | inactive: 71%
COc1ccc(CNC(=O)CN2C(=O)COc3ccc(S(=O)(=O)N4CCCCC4)cc32)cc1 | inactive: 83%
O=C(CCCn1ncn2c(cc3occc32)c1=O)NCc1ccccc1F | inactive: 86%
Cc1cc(C)c2oc(C(=O)Nc3ccc(S(=O)(=O)Nc4ncccn4)cc3)cc(=O)c2c1 | inactive: 65%
CCC(CC)NCc1ccc(OC)c(C)c1OC | inactive: 92%
Cc1cc2c(cc1S(=O)(=O)C(C)CC(=O)NC1CCC(C)CC1)OCC(=O)N2 (stereo unspecified) | inactive: 92%
O=C(Nc1ccccc1C(F)(F)F)c1cc2nc(-c3ccccc3)cc(-c3ccccc3)n2n1 | inactive: 61%
CCc1ccc2c(c1)NC(c1ccc(F)cc1)=NC(c1ccncc1)=N2 | inactive: 89%
COc1ccccc1NC(=O)c1sc(-c2ccc(Cl)cc2)cc1N | inactive: 149%
CC(c1nnnn1CCc1ccccc1)N1CCN(c2cccc(C(F)(F)F)c2)CC1 (stereo unspecified) | inactive: 63%
CCN(CC)C(=O)c1sc2c(c1C)c(=O)n(Cc1ccccc1)c(=O)n2Cc1cc(C)ccc1C | inactive: 73%
